Laboratory results as given in PubChem BioAssay AID662 (National Center for Advancing Translational Sciences (NCATS), 2007).
Among all 71,000 compounds or so, about 1,800 (2.5%) were called active. The shares of active, inactive and inconclusive entries below differ from those in the screen. Calls come from the whole dose curve; as a rule, active = well fitted activation curve with a large enough effect in the signal ratio, with a control signal flat (not every such curve was filed as active); inconclusive = small, poorly fitted or top-dose-only effect, or effect the other way, or a change in a side signal; inactive = flat fitted curve, though single readings scatter; the % refers to the signal ratio. Where the call is inconclusive, the potency comes from a doubtful curve fit.

Assay: Cell signaling CRE-BLA (Fsk stim); for activity change, negative = inhibition: % of control where 0% means no effect
Conditions: CHO CRE-bla reporter (cAMP response element driving beta-lactamase), forskolin EC10, beta-lactamase ratio; activity change, negative = inhibition: at 38.2 µM (top of the series) unless noted
Method in brief: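 The 460nm/530nm emission ratio after CCF4 loading defined %Activity, from which AC50 values were obtained. CRE-bla CHO cells received compound dilution series together with an EC10 level of NKH 477 for 3 hours at 37 degrees Celsius.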
Potency is the fitted concentration of half-maximal effect; tags give direction and shape of the fitted curve.

SMILES	activity change, negative = inhibition	Potency
CCOc1ccccc1N1CCN(Cc2ccc(OC)c(OC)c2)CC1	inconclusive: 8.07% [at 7.6 µM]	–
COc1ccc(C(C)=O)cc1COC(=O)c1cc(C)oc1C	–	inconclusive: 12.6 µM [rising, single point]
Nc1ncnc2c1nc(Br)n2[C@@H]1O[C@H]2COP(=O)(O)O[C@@H]2[C@H]1O	–	inconclusive: 25.1 µM [rising, single point]
CC(C)OC(=O)C(C#N)c1nc2ccccc2nc1N1CCN(Cc2ccccc2)CC1 (stereo not given)	inconclusive: -23.5% [fluorescent]	–
COC(=O)c1ccc(C2C(C#N)=C(N)Oc3cc(C)n(C)c(=O)c32)cc1 (stereo not given)	inconclusive: 17.2%	–
CCN(CC)CCN(CC)Cc1ccccc1Br	inconclusive: -17.3% [at 7.6 µM]	–
O=C(c1ccc(N2CCOCC2)nc1)N1CCOCC1	inactive: -0.723%	–
COc1ccc(CNC(=O)[C@H](C)[C@H]2C[C@]2(C)[C@H](NC(=O)OCc2ccccc2)c2ccccc2)cc1OC	inactive: -4.82%	–
COc1ccc(OC)c(NC(=O)Nc2nnc(N3CCC(C)CC3)s2)c1	inactive: 21.1%	–
O=C(Nc1cccc(NC(=O)c2cccs2)c1)c1ccco1	inactive: -22.5%	–
C[C@@]12CC[C@H]3[C@@H](CCC4=CC(=O)CC[C@]43C)[C@H]1CC[C@H]2C(=O)CO	inactive: 6.65% [at 17.1 µM]	–
COc1ccc(C)cc1S(=O)(=O)N1CCCC(C(=O)NCC2CCCO2)C1 (stereo not given)	inconclusive: -3.71%	–
CN1CCc2c(sc(/N=C/c3ccco3)c2C(N)=O)C1	inconclusive: 24.8%	–
CCNCCCNCCCCNCCCNCC	inconclusive: -10.3%	–
Cc1ccccc1-c1nc(CN2CCC(C(=O)NCCCN3CC(C)CC(C)C3)CC2)c(C)o1 (stereo not given)	inconclusive: -7.02%	–
Cc1ccc(Cl)cc1N1CCN(Cc2nc3c(c(=O)[nH]c(=O)n3C)n2CCc2ccccc2)CC1	inconclusive: -14.3%	–
CCN1C(=O)CC(N2CCN(c3ccc(Cl)cc3)CC2)C1=O (stereo not given)	inactive: 1.58%	–
COc1ccc(OCC(=O)NCc2cccnc2)cc1	inconclusive: -20.7%	–
Cc1noc(C)c1S(=O)(=O)N1CCCC(C(=O)Nc2cccnc2)C1 (stereo not given)	inactive: 0.516%	–
O=c1c2ccccc2nc2c3ccccc3c(N3CCOCC3)nn12	–	inconclusive: 2.51 µM [rising, partial curve]
CS(=O)(=O)Nc1cccc(-c2ccc3ncnc(N4CCNCC4)c3c2)c1	inconclusive: 28.4%	–
Cn1c(NC(=O)c2cc(-c3ccc4c(c3)OCO4)nc3ccccc23)cc(=O)n(C)c1=O	–	inconclusive: 15.8 µM [rising, single point]
CC(C)Cc1cc(-c2ccco2)c(C#N)c(N)n1	–	active: 1.58 µM
O=S(=O)(NCC(O)COCc1ccco1)c1cccs1 (stereo not given)	inconclusive: 39.9%	–
COc1ccccc1-n1c(N)c(C(N)=O)sc1=S	inconclusive: 14.4%	–
CCCOc1ccc(C2c3c(oc4ccccc4c3=O)C(=O)N2CCN(CC)CC)cc1OC (stereo not given)	inconclusive: 1.33%	–
CC(NC(=O)c1cc(-c2ccc(O)cc2)on1)c1ccccc1 (stereo not given)	inconclusive: -26.5%	–
CCOc1ccccc1NC(=O)CCC(=O)Nc1ccc2nc(N3CCN(C)CC3)cc(C)c2c1	–	inconclusive: 15.8 µM [rising, single point]

SMILES	activity change, negative = inhibition	Potency
CCN(CC)C(=O)c1c[nH]c2ccc(S(=O)(=O)Nc3cc(C)cc(C)c3)cc2c1=O	inconclusive: -16%	–
Cc1ccc(-c2csc3nc(C)n(-n4c(C)ccc4C)c(=O)c23)o1	inconclusive: 33.9%	–
CCOC(=O)c1sc(NC(=O)CSc2nc3c(cc2C#N)CCCCCC3)c(C#N)c1C	inconclusive: 13.9%	–
CCOc1c(OC)cccc1C1CC(=O)Nc2cc3c(cc21)OCCO3 (stereo not given)	inactive: 15.3%	–
Cc1cc(C)c2c(N)c(C(=O)N3CCCCCC3)sc2n1	inconclusive: 25.7%	–
CCN1C(=O)c2cccc3c(S(=O)(=O)Nc4ccccc4OC)ccc1c23	inconclusive: 24.2%	–
CN(C)c1ncc2nc(-c3ccc(F)cc3)c(=O)n(Cc3cccs3)c2n1	–	inconclusive: 0.794 µM [rising, full curve]
Cc1onc(-c2ccccc2Cl)c1C(=O)NCC(=O)O	–	inconclusive: 5.01 µM [rising, single point]
CCCCCn1c(-c2ccco2)nc2nc3ccccc3nc21	–	active: 12.6 µM
CCOC(=O)Nc1ccc2c(C)cc(=O)oc2c1	inactive: 4.46%	–
CCOC(=O)c1cnc2c(C#N)c(C)nn2c1C	inactive: 21.7%	–
COc1ccccc1-n1c(SC)nc(O)cc1=O	inactive: -10.9%	–
COc1ccc(-c2nc(CSCC(=O)N3CCc4ccccc4C3)c(C)o2)cc1OC	–	inconclusive: 10 µM [rising, partial curve]
O=C(NCc1ccco1)c1cc2nc(-c3cccs3)cc(C(F)(F)F)n2n1	–	inconclusive: 12.6 µM [rising, partial curve]
C=C(C)COc1ccc(-c2ncncc2Oc2ccc(OC)cc2)c(O)c1	inactive: -9.03%	–
Cc1ccccc1	inconclusive: 14%	–
COc1ccc(C)cc1Nc1cc(C)nc2ncnn12	inactive: 13.9%	–
Cn1c(NC(=O)C(C)(C)Oc2ccc(Cl)cc2)cc(=O)n(C)c1=O	inactive: 0.931%	–
CNC(=O)c1cc2c(=O)n3cccc(C)c3nc2n1C	–	inconclusive: 1.26 µM [rising, partial curve, poor fit]
Cc1c(C(=O)OC(C)C)[nH]c2c1C(=O)CCC2	inconclusive: 27.9%	–
O=C(O)c1ccc(Cl)c(S(=O)(=O)N2CCCCCC2)c1	inconclusive: 8.69%	–
Cc1ccc(C(C)C)c(Oc2nnnn2-c2ccccc2)c1	inconclusive: 12.9%	–
O=C(Nc1ccc2c(c1)OCCO2)c1ccccc1F	inconclusive: 3.6% [at 7.6 µM]	–
C[n+]1cccc(/C=C\c2ccc3cccc(O)c3n2)c1	–	inconclusive: 5.01 µM [rising, single point]
O=C(CCn1c(=O)oc2ccccc21)N1CCc2ccccc21	–	inconclusive: 3.98 µM [falling, single point]
CCCc1cc2c(n1Cc1cc(F)cc(F)c1)C(C)C1CN(C(=O)c3ccccc3)C(C)(C(=O)OC)C21 (stereo not given)	inactive: -27.5%	–
CC(C)=CCCC(C)CN1CCC(O)CC1 (stereo not given)	–	inconclusive: 25.1 µM [rising, single point]
